To fix the notation:
B1: F25A IGF-1 (purified soluble) (ligand)
chain: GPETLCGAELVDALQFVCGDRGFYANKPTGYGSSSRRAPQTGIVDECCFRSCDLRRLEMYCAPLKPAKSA
B2: T4A IGF-1 (purified soluble) (ligand)
chain: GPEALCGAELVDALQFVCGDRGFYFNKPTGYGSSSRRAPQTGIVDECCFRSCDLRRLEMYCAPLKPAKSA
notes: made from the wild-type IGF-1 plasmid pBKIGF2B-f1-ori
B3: R36A IGF-1 (purified soluble) (ligand)
chain: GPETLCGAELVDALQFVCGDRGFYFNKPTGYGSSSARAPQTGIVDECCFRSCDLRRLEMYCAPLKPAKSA
B4: G1S-A70V IGF-1 (purified soluble) (ligand)
chain: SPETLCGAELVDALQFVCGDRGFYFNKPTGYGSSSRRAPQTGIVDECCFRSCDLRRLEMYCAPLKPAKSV
B5: F16A IGF-1 (purified soluble) (ligand)
chain: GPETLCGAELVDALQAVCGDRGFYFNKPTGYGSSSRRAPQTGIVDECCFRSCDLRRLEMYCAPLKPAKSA
B6: V11A IGF-1 (purified soluble) (ligand)
chain: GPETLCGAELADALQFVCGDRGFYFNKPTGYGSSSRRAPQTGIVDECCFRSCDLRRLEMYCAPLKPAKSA
B7: P39A IGF-1 (purified soluble) (ligand)
chain: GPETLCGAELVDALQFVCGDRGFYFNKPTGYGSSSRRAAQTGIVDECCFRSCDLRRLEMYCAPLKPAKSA
B8: F49A IGF-1 (purified soluble) (ligand)
chain: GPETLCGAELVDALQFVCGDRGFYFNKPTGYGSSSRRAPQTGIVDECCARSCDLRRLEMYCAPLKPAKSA
B9: wild-type IGF-1 displayed on phage (ligand)
chain: not shown
notes: range […]; double mutation restoring wild type; monovalent M13 display; also called IGF-1 WT
B10: F16A/F49A IGF-1 (ligand)
chain: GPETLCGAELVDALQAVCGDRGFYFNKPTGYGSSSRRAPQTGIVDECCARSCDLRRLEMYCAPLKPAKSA
B11: Y31C IGF-1 (ligand)
chain: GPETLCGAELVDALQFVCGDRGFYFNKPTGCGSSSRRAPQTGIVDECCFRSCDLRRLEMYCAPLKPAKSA
modifications: coupled to the sensor chip through Cys31 by a disulfide linkage
B12: D12K IGF-1 displayed on phage (ligand)
chain: not shown
notes: background and coat fusion not restated
B13: D12R IGF-1 displayed on phage (ligand)
chain: not shown
notes: as for B12

One assay deals with T1, human IGFBP-1 (human, UniProt P08833 26-259).
T1 sequence (looked up): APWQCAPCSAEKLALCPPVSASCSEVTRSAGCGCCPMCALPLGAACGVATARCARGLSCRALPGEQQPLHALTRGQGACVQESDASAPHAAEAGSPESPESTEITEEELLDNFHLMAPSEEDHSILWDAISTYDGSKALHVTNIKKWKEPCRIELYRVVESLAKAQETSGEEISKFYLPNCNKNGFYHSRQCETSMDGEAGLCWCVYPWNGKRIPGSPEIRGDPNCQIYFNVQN
Briefly: BIAcore kinetics. For orientation: Surface plasmon resonance follows binding to a sensor surface in real time, without labels.
Consider B1, for which the “relative KD (mut/wt)” value came to 25.

Take B2: the “relative KD (mut/wt)” value amounted to 6.9.

On to B3, for which the “relative KD (mut/wt)” value amounted to 1.1.

Regarding B4, the “relative KD (mut/wt)” value stood at 1.1.

For the molecule B5, the “relative KD (mut/wt)” value is 25.

With B6, the “relative KD (mut/wt)” value was determined as 5.1.

As for B7, the “relative KD (mut/wt)” value was determined as 1.

Turning to B8, the “relative KD (mut/wt)” value was 70.

A further assay addresses T2, recombinant human IGFBP-3 (human, UniProt P17936). Briefly: BIAcore kinetics.
As for B1, the “relative KD (mut/wt)” value was 5.1.

Take B2: the “relative KD (mut/wt)” value is 2.1.

In the case of B3, the “relative KD (mut/wt)” value amounted to 0.8.

For B4, the “relative KD (mut/wt)” value turned out to be 1.5.

Take B5: the “relative KD (mut/wt)” value was 6.9.

Consider B6, for which the “relative KD (mut/wt)” value is 4.5.

B7: the “relative KD (mut/wt)” value is 1.5.

As for B8, the “relative KD (mut/wt)” value stood at 4.2.

A further assay addresses IGF type I receptor (UniProt P08069 31-1367). The experiment in a line: cell-based or functional assay.
Chain of UniProt P08069 (P08069 31-1367): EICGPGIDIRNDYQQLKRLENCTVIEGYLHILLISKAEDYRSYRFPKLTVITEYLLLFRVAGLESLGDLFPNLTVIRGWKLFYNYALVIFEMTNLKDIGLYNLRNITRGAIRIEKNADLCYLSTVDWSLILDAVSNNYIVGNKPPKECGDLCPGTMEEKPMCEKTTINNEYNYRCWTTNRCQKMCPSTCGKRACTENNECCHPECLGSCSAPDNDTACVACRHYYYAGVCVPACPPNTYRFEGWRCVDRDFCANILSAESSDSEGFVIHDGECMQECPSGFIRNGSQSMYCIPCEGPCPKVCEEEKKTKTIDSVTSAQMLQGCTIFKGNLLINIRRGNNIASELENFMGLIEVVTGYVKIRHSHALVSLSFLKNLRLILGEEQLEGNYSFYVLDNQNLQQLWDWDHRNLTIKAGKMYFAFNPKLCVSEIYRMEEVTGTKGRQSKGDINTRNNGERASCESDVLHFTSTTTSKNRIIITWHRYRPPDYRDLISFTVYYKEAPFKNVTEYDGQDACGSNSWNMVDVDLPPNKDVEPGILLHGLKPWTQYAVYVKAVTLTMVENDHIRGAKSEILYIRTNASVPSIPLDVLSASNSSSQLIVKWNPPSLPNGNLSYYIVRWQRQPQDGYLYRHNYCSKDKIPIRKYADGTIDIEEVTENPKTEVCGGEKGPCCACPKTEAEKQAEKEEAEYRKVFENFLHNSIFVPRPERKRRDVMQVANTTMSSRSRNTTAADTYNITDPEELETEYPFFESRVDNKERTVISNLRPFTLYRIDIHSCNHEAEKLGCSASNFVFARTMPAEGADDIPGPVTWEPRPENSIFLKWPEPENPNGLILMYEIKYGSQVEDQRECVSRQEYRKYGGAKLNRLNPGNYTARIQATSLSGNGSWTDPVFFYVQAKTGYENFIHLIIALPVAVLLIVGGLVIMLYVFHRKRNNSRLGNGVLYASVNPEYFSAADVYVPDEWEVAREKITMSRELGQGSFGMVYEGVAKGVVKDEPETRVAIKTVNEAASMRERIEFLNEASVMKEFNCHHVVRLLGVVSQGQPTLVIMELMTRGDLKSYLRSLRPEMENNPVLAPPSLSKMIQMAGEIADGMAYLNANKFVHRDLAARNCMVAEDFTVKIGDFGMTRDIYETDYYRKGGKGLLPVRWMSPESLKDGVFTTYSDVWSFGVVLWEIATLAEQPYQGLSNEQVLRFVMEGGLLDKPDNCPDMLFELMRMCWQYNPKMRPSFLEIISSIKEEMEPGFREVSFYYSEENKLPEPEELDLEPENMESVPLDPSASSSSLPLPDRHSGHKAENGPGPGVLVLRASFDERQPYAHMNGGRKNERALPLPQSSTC
For the molecule B8, the “KIRA EC50” value came out at 20 ng/mL.

Another assay has as its target T1, human IGFBP-1. Briefly: competitive phage ELISA. The method, then: (§1) E. coli cells (XL1-Blue, Stratagene) freshly transformed with phagemid vector were grown overnight in 5 mL 2YT medium (Sambrook et al., supra) in the presence of M13-VCS helper phage (Stratagene). Phage particles were harvested and resuspended in PBS buffer as described in Lowman, H. B., “Phage Display of Peptide Libraries on Protein Scaffolds,” in Cabilly, S. (ed.), Combinatorial Peptide Library Protocols (Humana Press Inc.: Totowa, N.J., 1998), pp. 249-264. Then phage concentrations were normalized to yield a maximal ELISA signal of 0.2-0.4 for each mutant (Lowman, in Cabilly, S. (ed.), supra). Threefold serial dilutions of soluble competitor were prepared on non-absorbent microtiter plates (Nunc, F, 96 wells) with binding buffer (0.5% TWEEN 20%/PBS) containing phage at the previously determined concentrations. […] After blocking, the plates containing immobilized target were washed with 0.05% TWEEN™/PBS buffer and subsequently incubated with 80 μl/well of the premixed phage-competitor solutions for 1 hour at room temperature. […] IC₅₀ values were determined by fitting the binding data to a generic saturation curve (Lowman, in Cabilly, S. (ed.), supra). At least two individual clones of each IGF-1 mutant were assayed. Numbers in Table XIII represent mean±standard deviation of individually assessed IC₅₀ values.
The IC50 is the midpoint of a concentration-inhibition curve. The molecule B9 came in with an IC50 of 8.4 nM.

The target of another assay is T2, recombinant human IGFBP-3. Briefly: competitive phage ELISA. As to the method: as §1
T2 sequence (P17936 28-291 limits assumed): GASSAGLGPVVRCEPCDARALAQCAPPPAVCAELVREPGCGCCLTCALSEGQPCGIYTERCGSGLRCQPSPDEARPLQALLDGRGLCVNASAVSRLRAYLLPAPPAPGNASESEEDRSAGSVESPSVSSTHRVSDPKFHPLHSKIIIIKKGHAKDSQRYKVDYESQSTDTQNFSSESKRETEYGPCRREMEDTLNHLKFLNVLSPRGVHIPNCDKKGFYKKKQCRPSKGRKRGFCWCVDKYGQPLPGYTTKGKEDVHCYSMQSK
For orientation: ELISA stands for enzyme-linked immunosorbent assay.
As to B9, the IC50 is 1.01 nM.

A further assay addresses T1, human IGFBP-1. The experiment in a line: BIAcore kinetics, IGF variant immobilized. The method, then:
(§2) Carboxymethylated dextran biosensor chips (CM5, BIAcore Inc.) were activated with EDC (N-ethyl-N′-(3-dimethylaminopropyl)-carbodiimide hydrochloride) and NHS (N-hydroxysuccinimide) according to the supplier's instructions. For immobilization, IGF mutants in 20 mM sodium acetate, pH 4.8, were injected onto the biosensor chip at a concentration of 50 μg/ml to yield approximately 450-600 RU's (resonance-response units) of covalently-coupled protein. Unreacted groups were blocked with an injection of 1 M ethanolamine. […] Association rates (kₐ) and dissociation rates (kd) were calculated separately using a 1:1 Langmuir™ association model in the BIACORE™ evaluation software v. 3.0. The equilibrium dissociation constant (KD) was calculated as kd/kₐ.
One may read the Kd as the free concentration of one partner at which half of the binding sites on the other are occupied at equilibrium, for simple one-to-one binding. One may read the koff as the first-order rate constant of dissociation. For orientation: kon means the rate constant with which the complex forms. B1: the dissociation constant Kd stood at 323 nM, the koff is 0.0049 s⁻¹ and the on-rate constant (kon) worked out at 15000 M⁻¹ s⁻¹.

For B2, the equilibrium dissociation constant (Kd) is 90 nM, the koff was 0.00167 s⁻¹ and the kon was 19000 M⁻¹ s⁻¹.

For the molecule B3, the Kd is 13.9 nM, the koff stood at 0.00056 s⁻¹ and the kon was determined as 40000 M⁻¹ s⁻¹.

B4: the Kd was found to be 14 nM, the koff was found to be 0.00045 s⁻¹ and the association rate constant (kon) is 32000 M⁻¹ s⁻¹.

Consider B5, for which binding was characterised by a dissociation constant (Kd) of 321 nM, the koff worked out at 0.00603 s⁻¹ and the kon came to 19000 M⁻¹ s⁻¹.

Consider B6, for which binding was characterised by a dissociation constant (Kd) of 66.5 nM, the koff is 0.00123 s⁻¹ and the kon is 19000 M⁻¹ s⁻¹.

Molecule B7 gave a Kd of 13.6 nM, a koff of 0.00042 s⁻¹ and a kon of 31000 M⁻¹ s⁻¹.

Molecule B8 yielded a Kd of 913 nM, a koff of 0.0115 s⁻¹ and a kon of 12600 M⁻¹ s⁻¹.

A further assay addresses T2, recombinant human IGFBP-3. Briefly: BIAcore kinetics, IGF variant immobilized. The method, then:
as §2
On to B1, for which the Kd was determined as 7.7 nM, the koff came out at 0.00118 s⁻¹ and the kon worked out at 150000 M⁻¹ s⁻¹.

Regarding B2, the Kd was determined as 3.1 nM, the koff stood at 0.00055 s⁻¹ and the kon was 180000 M⁻¹ s⁻¹.

With B3, the dissociation constant Kd came to 1.2 nM, the koff amounted to 0.00047 s⁻¹ and the kon amounted to 400000 M⁻¹ s⁻¹.

On to B4, for which the Kd was determined as 2.2 nM, the koff came out at 0.00063 s⁻¹ and the kon stood at 290000 M⁻¹ s⁻¹.

As for B5, the Kd is 10.3 nM, the koff was found to be 0.00114 s⁻¹ and the kon stood at 110000 M⁻¹ s⁻¹.

On to B6, for which the Kd turned out to be 6.7 nM, the koff worked out at 0.00209 s⁻¹ and the on-rate constant (kon) is 310000 M⁻¹ s⁻¹.

Turning to B7, the dissociation constant Kd was 2.2 nM, the koff worked out at 0.0006 s⁻¹ and the kon was 270000 M⁻¹ s⁻¹.

Regarding B10, the Kd stood at 99 nM, the koff stood at 0.00386 s⁻¹ and the kon came out at 40000 M⁻¹ s⁻¹.

For the molecule B8, the Kd was found to be 6.3 nM, the koff amounted to 0.00171 s⁻¹ and the kon is 270000 M⁻¹ s⁻¹.

The next assay deals with T1, human IGFBP-1. Briefly: BIAcore kinetics, Y31C coupled through Cys31.
Turning to B11, binding was put at a Kd of 10 nM, the koff was found to be 0.00038 s⁻¹ and the kon worked out at 39000 M⁻¹ s⁻¹.

In another assay the target is T1, human IGFBP-1. Briefly: BIAcore competition, 50 nM IGFBP-1 to immobilized Y31C IGF-1.
The molecule B8 had an IC50 of 1600 nM.

In another assay the target is T1, human IGFBP-1. The experiment in a line: phage ELISA: titration of phage displaying the IGF-1 variant on immobilized IGFBP-1; OD450.
As to B9, the “EC50 (read off the curve)” value is around 1e+10 phage/ml.

Consider B12, for which the “EC50 (read off the curve)” value is around 2e+10 phage/ml.

For the molecule B13, the “EC50 (read off the curve)” value was around 1e+10 phage/ml.

In a further assay the target is T2, recombinant human IGFBP-3. Briefly: phage ELISA: titration of phage displaying the IGF-1 variant on immobilized IGFBP-3; OD450.
On to B9, for which the “EC50 (read off the curve)” value was around 2e+10 phage/ml.

The record behind these values is patent US20090011988A1 (Genentech, published 2009).
